# Results taken from PubChem BioAssay AID228 (DTP/NCI, 2004).
# Records with an inconclusive call do not appear. For part of its entries the source gives two or more results. Only these are listed. The source may hold further records. Values that stand side by side are repeats in other runs, samples, wells, individuals or studies. Marks in square brackets tell the records apart. The letters are not those of the source and start again with each entry. Brackets with × say how often a value occurs here. Starred links: 1 amine or outer side, 2 acyl side, 3 side chain; linkers in the order of their positions; H or OH if unused. Positions of bridges follow the written chain, without caps; N, C: chain ends. Non-standard residues stand in square brackets, D forms with d. Residues, ends and D or L forms follow the SMILES beside them. Chains are numbered I, II in the order given. Actinocin(9to1) = Cc1c2oc3c(C)ccc(C(=O)[*:1])c3nc-2c(C(=O)[*:2])c(N)c1=O; aThr = C[C@H](O)[C@H](N)C(=O)O; NMeV = CN[C@H](C(=O)O)C(C)C; Sar = CNCC(=O)O
# System: BDF1 mice, Friend leukemia sc, tumor weight T/C
# Test: NCI In Vivo Anticancer Drug Screen. Data for tumor model Friend Virus Leukemia (Solid) (subcutaneous) in B6D2F1 (BDF1) mice
# Conditions: endpoint: mean tumor weight, higher = larger tumour
# Procedure: The antitumor activity of compounds was measured in mice bearing transplantable tumors. Survival or tumor size were measured and the results are expressed as the measurement made in the treated group (T) divided by the measurement made in the vehicle treated control group (C). The tumor model used in this assay is Friend Virus Leukemia (Solid) (subcutaneous) in B6D2F1 (BDF1) mice
# [1] = dose: 125.0 mg/kg/injection, schedule: Q01DX011 (ip), vehicle: carboxymethylcellulose (CMC)
# [2] = dose: 50.0 mg/kg/injection, schedule: Q01DX011 (ip), vehicle: carboxymethylcellulose (CMC)
# [3] = dose: 12.0 mg/kg/injection, schedule: Q01DX011 (ip), vehicle: carboxymethylcellulose (CMC)
# [4] = dose: 1.0 mg/kg/injection, schedule: Q01DX011 (ip), vehicle: carboxymethylcellulose (CMC)
structure (smiles),measurement,setting,value
S=P(N1CC1)(N1CC1)N1CC1,T/C,"dose: 1.2 mg/kg/injection, schedule: Q01DX011 (ip), vehicle: carboxymethylcellulose (CMC)",34 % of control and 94 % of control
"Cc1c2oc3c(C)ccc(C(=O)N[C@@H]4C(=O)N[C@H](C(C)C)C(=O)N5CCC[C@H]5C(=O)N(C)CC(=O)N(C)[C@@H](C(C)C)C(=O)O[C@H]4C)c3nc-2c(C(=O)N[C@@H]2C(=O)N[C@H](C(C)C)C(=O)N3CCC[C@H]3C(=O)N(C)CC(=O)N(C)[C@@H](C(C)C)C(=O)O[C@H]2C)c(N)c1=O (I: [aThr][dV]P[Sar][NMeV] / II: [aThr][dV]P[Sar][NMeV]; ester I:1-I:C, II:1-II:C; linker I:N-II:N via Actinocin(9to1))",T/C,"dose: 25.0 micrograms/kg/injection, schedule: Q01DX011 (ip), vehicle: carboxymethylcellulose (CMC)","59 % of control, 74 % of control, 120 % of control"
same,T/C,"dose: 50.0 micrograms/kg/injection, schedule: Q01DX011 (ip), vehicle: carboxymethylcellulose (CMC)",14 % of control and 69 % of control
O=C1C=CC(=O)O1 (tested in a mixture with another compound),T/C,"dose: 31.0 mg/kg/injection, schedule: Q#A X022 (ip), vehicle: carboxymethylcellulose (CMC)","65 % of control [sample A] and 46 % of control, 67 % of control [sample B] and 86 % of control [sample C]"
same,T/C,"dose: 62.5 mg/kg/injection, schedule: Q#A X022 (ip), vehicle: carboxymethylcellulose (CMC)",44 % of control [sample A] and 86 % of control [sample B]
O=C1CN(/N=C\c2ccc([N+](=O)[O-])o2)C(=O)N1,T/C,"dose: 38.0 mg/kg/injection, schedule: Q01DX011 (ip), vehicle: carboxymethylcellulose (CMC)",54 % of control and 80 % of control
CC(=O)[C@H]1CC[C@H]2[C@@H]3CCC4=CC(=O)[C@H](C)C[C@]4(C)[C@@]3(F)[C@@H](O)C[C@]12C,T/C,"dose: 37.5 mg/kg/injection, schedule: Q01DX011 (sc), vehicle: steriod suspending solution","23 % of control, 47 % of control, 57 % of control"
C[C@]12C=CC(=O)C=C1CC[C@@H]1[C@@H]2[C@@H](O)C[C@@]2(C)[C@H]1CC[C@]2(O)C(=O)COC(=O)C1CCCC1,T/C,"dose: 1.0 mg/kg/injection, schedule: Q01DX011 (sc), vehicle: steriod suspending solution",59 % of control and 91 % of control
CCN(CC)CCNc1ccc(C)c2sc3ccccc3c(=O)c12,T/C,"dose: 32.5 mg/kg/injection, schedule: Q01DX011 (ip), vehicle: carboxymethylcellulose (CMC)",21 % of control and 119 % of control
C1CN1c1nc(N2CC2)nc(N2CC2)n1,T/C,"dose: 0.05 mg/kg/injection, schedule: Q01DX011 (ip), vehicle: saline",36 % of control and 106 % of control
same,T/C,"dose: 0.1 mg/kg/injection, schedule: Q01DX011 (ip), vehicle: saline",57 % of control and 150 % of control
CNC=O,T/C,"dose: 171.0 mg/kg/injection, schedule: Q01DX011 (ip), vehicle: carboxymethylcellulose (CMC)",60 % of control and 88 % of control
same,T/C,"dose: 300.0 mg/kg/injection, schedule: Q01DX011 (ip), vehicle: carboxymethylcellulose (CMC)",30 % of control and 59 % of control
CC(=O)OCC(=O)[C@@]1(O)CC[C@H]2[C@@H]3CCC4=CC(=O)CC[C@]4(C)[C@H]3[C@@H](O)C[C@@]21C,T/C,"dose: 34.0 mg/kg/injection, schedule: Q01DX011 (sc), vehicle: steriod suspending solution",14 % of control and 105 % of control
c1ccc2c(c1)ccc1cc3c(ccc4ccccc43)cc12,T/C,[1],42 % of control and 70 % of control
O=c1[nH]c(=O)n(C2CC(O)C(CO)O2)cc1F (centres undefined),T/C,[2],18 % of control and 61 % of control
same,T/C,"dose: 63.0 mg/kg/injection, schedule: Q01DX011 (ip), vehicle: saline",55 % of control and 116 % of control
C[C@H](N)C(=O)N[C@@H]1[C@H]2C(=C(O)C[C@@H](O)[C@@H]2O)C(=O)O[C@@H]1C,T/C,"dose: 400.0 mg/kg/injection, schedule: Q01DX011 (ip), vehicle: carboxymethylcellulose (CMC)","35 % of control, 87 % of control, 173 % of control"
same,T/C,"dose: 800.0 mg/kg/injection, schedule: Q01DX011 (ip), vehicle: carboxymethylcellulose (CMC)",34 % of control (2×) and 78 % of control
N=[N+]=CC(=O)OCC(N)C(=O)O (centres undefined),T/C,"dose: 0.9 mg/kg/injection, schedule: Q01DX011 (ip), vehicle: carboxymethylcellulose (CMC)",70 % of control and 110 % of control
same,T/C,"dose: 7.2 mg/kg/injection, schedule: Q01DX011 (ip), vehicle: carboxymethylcellulose (CMC)",69 % of control and 101 % of control
CNC(C)=O,T/C,[1],95 % of control and 180 % of control
CC(C)Sc1nc(N)nc2nc[nH]c12,T/C,"dose: 6.0 mg/kg/injection, schedule: Q01DX011 (ip), vehicle: carboxymethylcellulose (CMC)",14 % of control and 55 % of control
same,T/C,[3],12 % of control and 59 % of control
S=c1nc[nH]c2nc[nH]c12,T/C,[4],"37 % of control, 82 % of control, 89 % of control"
S=c1nc[nH]c2c1ncn2C1CCCO1 (centres undefined),T/C,"dose: 3.0 mg/kg/injection, schedule: Q01DX011 (ip), vehicle: carboxymethylcellulose (CMC)",50 % of control and 93 % of control
Nc1nc(=S)c2ncn(C3OC(CO)C(O)C3O)c2[nH]1 (centres undefined),T/C,"dose: 0.75 mg/kg/injection, schedule: Q01DX011 (ip), vehicle: carboxymethylcellulose (CMC)",38 % of control and 67 % of control
C1OC1C1CO1 (centres undefined),T/C,"dose: 2.25 mg/kg/injection, schedule: Q01DX011 (ip), vehicle: carboxymethylcellulose (CMC)",73 % of control and 156 % of control
O=C(O)C1(NO)CCCC1,T/C,[2],68 % of control and 96 % of control
OCC1OC(n2cnc3c(=S)nc[nH]c32)C(O)C1O (centres undefined),T/C,"dose: 0.5 mg/kg/injection, schedule: Q01DX011 (ip), vehicle: carboxymethylcellulose (CMC)","36 % of control, 98 % of control, 156 % of control"
CCOC(N)=O,T/C,"dose: 200.0 mg/kg/injection, schedule: Q01DX011 (ip), vehicle: carboxymethylcellulose (CMC)",72 % of control and 107 % of control
Nc1ccccc1N,T/C,[2],46 % of control and 72 % of control
Nc1ncnc2[nH]ncc12,T/C,"dose: 7.5 mg/kg/injection, schedule: Q01DX011 (ip), vehicle: carboxymethylcellulose (CMC)",14 % of control and 47 % of control
Cc1c2ccc3ccccc3c2c[n+]2ccccc12,T/C,[3],41 % of control and 122 % of control
CN(C)c1ccc(C(=C(c2ccc(N(C)C)cc2)c2ccc(N(C)C)cc2)c2ccc(N(C)C)cc2)cc1,T/C,"dose: 12.0 mg/kg/injection, schedule: Q01DX011 (ip), vehicle: olive oil, sesame oil, peanut oil","112 % of control, 173 % of control, 189 % of control"
same,T/C,"dose: 18.0 mg/kg/injection, schedule: Q01DX011 (ip), vehicle: olive oil, sesame oil, peanut oil",100 % of control and 161 % of control
same,T/C,"dose: 25.0 mg/kg/injection, schedule: Q01DX011 (ip), vehicle: olive oil, sesame oil, peanut oil",89 % of control [sample A] and 70 % of control [sample B] and 96 % of control [sample C]
CCOC(=O)NP(=O)(N1CC1)N1CC1,T/C,"dose: 5.0 mg/kg/injection, schedule: Q01DX011 (ip), vehicle: saline","41 % of control, 105 % of control, 172 % of control"
same,T/C,"dose: 10.0 mg/kg/injection, schedule: Q01DX011 (ip), vehicle: saline",36 % of control and 79 % of control
same,T/C,"dose: 15.0 mg/kg/injection, schedule: Q01DX011 (ip), vehicle: saline","15 % of control, 30 % of control, 72 % of control"
same,T/C,"dose: 19.0 mg/kg/injection, schedule: Q01DX011 (ip), vehicle: saline","12 % of control, 48 % of control, 72 % of control"
C[C@]12CC[C@@H]3c4ccc(O)cc4CC[C@H]3[C@@H]1CC[C@@H]2O,T/C,"dose: 300.0 mg/kg/injection, schedule: Q01DX011 (sc), vehicle: steriod suspending solution",89 % of control and 176 % of control
CN(N=O)C(N)=O,T/C,[4],"32 % of control, 68 % of control, 79 % of control"
same,T/C,"dose: 5.0 mg/kg/injection, schedule: Q01DX011 (ip), vehicle: carboxymethylcellulose (CMC)","59 % of control, 64 % of control, 89 % of control"
same,T/C,"dose: 10.0 mg/kg/injection, schedule: Q01DX011 (ip), vehicle: carboxymethylcellulose (CMC)","55 % of control, 80 % of control, 98 % of control"
Cc1ncc(CO)c(C)c1O,T/C,"dose: 73.0 mg/kg/injection, schedule: Q01DX011 (ip), vehicle: carboxymethylcellulose (CMC)","77 % of control, 112 % of control, 116 % of control"
Nc1ccc2ccccc2c1N=Nc1ccccc1,T/C,"dose: 250.0 mg/kg/injection, schedule: Q01DX011 (ip), vehicle: carboxymethylcellulose (CMC)",33 % of control and 66 % of control
CSc1ncnc2c1ncn2C1CCCO1 (centres undefined),T/C,[2],17 % of control and 46 % of control
Nc1nc(=S)c2[nH]cnc2[nH]1,T/C,"dose: 0.12 mg/kg/injection, schedule: Q01DX011 (ip), vehicle: carboxymethylcellulose (CMC)",65 % of control and 107 % of control
